# Reference: the supplement of paper PMC8728848
# The list shows a part of the results.
# B1: NPA (Narcissus pseudonarcissus), C0HM45 (protein)
# chain: DNILYSGETLSPGEFLNNGRYVFIMQEDCNLVLYDVDKPIWATNTGGLDRRCHLSMQSDGNLVVYSPRNNPIWASNTGGENGNYVCVLQKDRNVVIYGTARWATGTNIH
# Assays:
# Assay in all cases: glycan array binding signal (z-score within array); higher = stronger binding
# Conditions in all cases: glycan notation: IUPAC condensed, linker removed
# [1] = target: Gal(a1-4)Gal(b1-4)GlcNAc(b1-3)Gal(b1-4)Glc
# Method in brief: (§1)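 Glycan array binding is given as a within-array Z-score, which can be read as non-binding when negative. The arrays, 3228 of them, came from the Consortium for Functional Glycomics database and were retained only where the protein sequence was available. Z-scores were averaged across arrays of the same protein sequence at different concentrations or buffers and across linkers.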
# Gal(a1-4)GlcNAc = target: Gal(a1-4)GlcNAc
# Method in brief: as §1
# Gal(a1-6)Glc = target: Gal(a1-6)Glc
# Method in brief: as §1
# Gal(b1-2)Gal = target: Gal(b1-2)Gal
# Method in brief: as §1
# Gal(b1-3)Gal = target: Gal(b1-3)Gal
# Method in brief: as §1
# Gal(b1-3)Gal(b1-4)GlcNAc = target: Gal(b1-3)Gal(b1-4)GlcNAc
# Method in brief: as §1
# Gal(b1-3)GalNAc = target: Gal(b1-3)GalNAc
# Method in brief: as §1
# [2] = target: Gal(b1-3)GalNAc(a1-3)[Fuc(a1-2)]Gal(b1-4)Glc
# Method in brief: as §1
# [3] = target: Gal(b1-3)GalNAc(a1-3)[Fuc(a1-2)]Gal(b1-4)GlcNAc
# Method in brief: as §1
# Gal(b1-3)GalNAc(b1-3)Gal = target: Gal(b1-3)GalNAc(b1-3)Gal
# Method in brief: as §1
# [4] = target: Gal(b1-3)GalNAc(b1-3)Gal(a1-4)Gal(b1-4)Glc
# Method in brief: as §1
# [5] = target: Gal(b1-3)GalNAc(b1-4)Gal(b1-4)Glc
# Method in brief: as §1
# [6] = target: Gal(b1-3)GalNAc(b1-4)[Neu5Ac(a2-3)]Gal(b1-4)Glc
# Method in brief: as §1
# Gal(b1-3)GlcNAc = target: Gal(b1-3)GlcNAc
# Method in brief: as §1
# [7] = target: Gal(b1-3)GlcNAc(a1-3)Gal(b1-4)GlcNAc
# Method in brief: as §1
# [8] = target: Gal(b1-3)GlcNAc(a1-6)Gal(b1-4)GlcNAc
# Method in brief: as §1
# Gal(b1-3)GlcNAc(b1-2)Man = target: Gal(b1-3)GlcNAc(b1-2)Man
# Method in brief: as §1
# [9] = target: Gal(b1-3)GlcNAc(b1-2)Man(a1-3)[Gal(b1-3)GlcNAc(b1-2)Man(a1-6)]Man(b1-4)GlcNAc(b1-4)GlcNAc
# Method in brief: as §1
# [10] = target: Gal(b1-3)GlcNAc(b1-2)Man(a1-3)[Gal(b1-3)GlcNAc(b1-2)Man(a1-6)]Man(b1-4)GlcNAc(b1-4)[Fuc(a1-6)]GlcNAc
# Method in brief: as §1
# [11] = target: Gal(b1-3)GlcNAc(b1-2)Man(a1-3)[GlcNAc(b1-4)][Gal(b1-3)GlcNAc(b1-2)Man(a1-6)]Man(b1-4)GlcNAc(b1-4)GlcNAc
# Method in brief: as §1
# [12] = target: Gal(b1-3)GlcNAc(b1-2)[Gal(b1-3)GlcNAc(b1-6)]Man(a1-6)[Gal(b1-3)GlcNAc(b1-2)Man(a1-3)]Man(b1-4)GlcNAc(b1-4)GlcNAc
# Method in brief: as §1
# [13] = target: Gal(b1-3)GlcNAc(b1-3)Gal(b1-3)GlcNAc
# Method in brief: as §1
# [14] = target: Gal(b1-3)GlcNAc(b1-3)Gal(b1-4)Glc
# Method in brief: as §1
# [15] = target: Gal(b1-3)GlcNAc(b1-3)Gal(b1-4)GlcNAc
# Method in brief: as §1
# [16] = target: Gal(b1-3)GlcNAc(b1-3)Gal(b1-4)GlcNAc(b1-2)Man(a1-3)[Gal(b1-3)GlcNAc(b1-3)Gal(b1-4)GlcNAc(b1-2)Man(a1-6)]Man(b1-4)GlcNAc(b1-4)GlcNAc
# Method in brief: as §1
# [17] = target: Gal(b1-3)GlcNAc(b1-3)Gal(b1-4)GlcNAc(b1-2)[Gal(b1-3)GlcNAc(b1-3)Gal(b1-4)GlcNAc(b1-6)]Man(a1-6)[Gal(b1-3)GlcNAc(b1-3)Gal(b1-4)GlcNAc(b1-2)Man(a1-3)]Man(b1-4)GlcNAc(b1-4)[Fuc(a1-6)]GlcNAc
# Method in brief: as §1
# [18] = target: Gal(b1-3)GlcNAc(b1-3)Gal(b1-4)GlcNAc(b1-3)Gal(b1-4)GlcNAc(b1-2)[Gal(b1-3)GlcNAc(b1-3)Gal(b1-4)GlcNAc(b1-3)Gal(b1-4)GlcNAc(b1-6)]Man(a1-6)[Gal(b1-3)GlcNAc(b1-3)Gal(b1-4)GlcNAc(b1-3)Gal(b1-4)GlcNAc(b1-2)Man(a1-3)]Man(b1-4)GlcNAc(b1-4)[Fuc(a1-6)]GlcNAc
# Method in brief: as §1
# [19] = target: Gal(b1-3)GlcNAc(b1-3)Gal(b1-4)GlcNAc(b1-6)[Gal(b1-3)GlcNAc(b1-3)]Gal(b1-4)Glc
# Method in brief: as §1
# [20] = target: Gal(b1-3)GlcNAc(b1-3)Gal(b1-4)[Fuc(a1-3)]GlcNAc
# Method in brief: as §1
# [21] = target: Gal(b1-3)GlcNAc(b1-3)Gal(b1-4)[Fuc(a1-3)]GlcNAc(b1-6)[Gal(b1-3)GlcNAc(b1-3)]Gal(b1-4)Glc
# Method in brief: as §1
# [22] = target: Gal(b1-3)GlcNAc(b1-3)GalNAc
# Method in brief: as §1
# [23] = target: Gal(b1-3)GlcNAc(b1-6)Gal(b1-4)GlcNAc
# Method in brief: as §1
# [24] = target: Gal(b1-3)GlcNAc(b1-6)GalNAc
# Method in brief: as §1
# [25] = target: Gal(b1-3)GlcNAc(b1-6)[Gal(b1-3)]GalNAc
# Method in brief: as §1
# Gal(b1-3)GlcNAc6S = target: Gal(b1-3)GlcNAc6S
# Method in brief: as §1
# [26] = target: Gal(b1-3)[Fuc(a1-4)]GlcNAc
# Method in brief: as §1
# [27] = target: Gal(b1-3)[Fuc(a1-4)]GlcNAc(b1-2)Man
# Method in brief: as §1
# [28] = target: Gal(b1-3)[Fuc(a1-4)]GlcNAc(b1-2)Man(a1-3)[Gal(b1-3)[Fuc(a1-4)]GlcNAc(b1-2)Man(a1-6)]Man(b1-4)GlcNAc(b1-4)[Fuc(a1-6)]GlcNAc
# Method in brief: as §1
# [29] = target: Gal(b1-3)[Fuc(a1-4)]GlcNAc(b1-3)Gal(b1-3)[Fuc(a1-4)]GlcNAc
# Method in brief: as §1
# [30] = target: Gal(b1-3)[Fuc(a1-4)]GlcNAc(b1-3)Gal(b1-4)GlcNAc
# Method in brief: as §1
# [31] = target: Gal(b1-3)[Fuc(a1-4)]GlcNAc(b1-3)Gal(b1-4)[Fuc(a1-3)]GlcNAc
# Method in brief: as §1
# [32] = target: Gal(b1-3)[Fuc(a1-4)]GlcNAc(b1-6)GalNAc
# Method in brief: as §1
# [33] = target: Gal(b1-3)[GlcNAc(b1-6)]GalNAc
# Method in brief: as §1
# [34] = target: Gal(b1-3)[Neu5Ac(a2-6)]GalNAc
# Method in brief: as §1
# [35] = target: Gal(b1-3)[Neu5Ac(a2-6)]GlcNAc(b1-4)Gal(b1-4)Glc
# Method in brief: as §1
binder,measurement,setting,value
B1,glycan array binding signal (z-score),[1],-0.145
same,glycan array binding signal (z-score),Gal(a1-4)GlcNAc,-0.152
same,glycan array binding signal (z-score),Gal(a1-6)Glc,-0.147
same,glycan array binding signal (z-score),Gal(b1-2)Gal,-0.127
same,glycan array binding signal (z-score),Gal(b1-3)Gal,-0.156
same,glycan array binding signal (z-score),Gal(b1-3)Gal(b1-4)GlcNAc,-0.133
same,glycan array binding signal (z-score),Gal(b1-3)GalNAc,-0.148
same,glycan array binding signal (z-score),[2],-0.14
same,glycan array binding signal (z-score),[3],-0.146
same,glycan array binding signal (z-score),Gal(b1-3)GalNAc(b1-3)Gal,-0.144
same,glycan array binding signal (z-score),[4],-0.135
same,glycan array binding signal (z-score),[5],-0.142
same,glycan array binding signal (z-score),[6],-0.15
same,glycan array binding signal (z-score),Gal(b1-3)GlcNAc,-0.149
same,glycan array binding signal (z-score),[7],-0.157
same,glycan array binding signal (z-score),[8],-0.155
same,glycan array binding signal (z-score),Gal(b1-3)GlcNAc(b1-2)Man,-0.121
same,glycan array binding signal (z-score),[9],0.278
same,glycan array binding signal (z-score),[10],-0.108
same,glycan array binding signal (z-score),[11],0.233
same,glycan array binding signal (z-score),[12],0.134
same,glycan array binding signal (z-score),[13],-0.148
same,glycan array binding signal (z-score),[14],-0.155
same,glycan array binding signal (z-score),[15],-0.157
same,glycan array binding signal (z-score),[16],0.082
same,glycan array binding signal (z-score),[17],1.12
same,glycan array binding signal (z-score),[18],1.17
same,glycan array binding signal (z-score),[19],-0.151
same,glycan array binding signal (z-score),[20],-0.133
same,glycan array binding signal (z-score),[21],-0.142
same,glycan array binding signal (z-score),[22],-0.145
same,glycan array binding signal (z-score),[23],-0.155
same,glycan array binding signal (z-score),[24],-0.144
same,glycan array binding signal (z-score),[25],-0.051
same,glycan array binding signal (z-score),Gal(b1-3)GlcNAc6S,-0.145
same,glycan array binding signal (z-score),[26],-0.15
same,glycan array binding signal (z-score),[27],-0.137
same,glycan array binding signal (z-score),[28],1.08
same,glycan array binding signal (z-score),[29],-0.124
same,glycan array binding signal (z-score),[30],-0.197
same,glycan array binding signal (z-score),[31],-0.147
same,glycan array binding signal (z-score),[32],-0.122
same,glycan array binding signal (z-score),[33],-0.144
same,glycan array binding signal (z-score),[34],-0.15
same,glycan array binding signal (z-score),[35],-0.144
